Reference: PubChem BioAssay AID504332 (National Center for Advancing Translational Sciences (NCATS), 2011)
Hit rate of the full screen: of about 350,000 compounds, about 31,000 (8.9%) were called active. The shares of active, inactive and inconclusive entries below differ from those in the screen. Calls come from the whole dose curve; as a rule, active = well fitted inhibition curve with a large enough effect; inconclusive = small, poorly fitted or top-dose-only effect; inactive = no such curve, though single readings can be large or run the other way. Potencies of inconclusive entries are doubtful fits and often do not repeat.

Each molecule was assayed against Histone-lysine N-methyltransferase EHMT2 (Homo sapiens) (UniProt Q96KQ7) (assay: qHTS Assay for Inhibitors of Histone Lysine Methyltransferase G9a). Conditions: G9a H3K9 monomethylation, AlphaScreen, 2 h; activity, negative = inhibition: at 59 µM (top of the series) unless noted.
Chain of UniProt Q96KQ7 (Q96KQ7 whole entry, looked up): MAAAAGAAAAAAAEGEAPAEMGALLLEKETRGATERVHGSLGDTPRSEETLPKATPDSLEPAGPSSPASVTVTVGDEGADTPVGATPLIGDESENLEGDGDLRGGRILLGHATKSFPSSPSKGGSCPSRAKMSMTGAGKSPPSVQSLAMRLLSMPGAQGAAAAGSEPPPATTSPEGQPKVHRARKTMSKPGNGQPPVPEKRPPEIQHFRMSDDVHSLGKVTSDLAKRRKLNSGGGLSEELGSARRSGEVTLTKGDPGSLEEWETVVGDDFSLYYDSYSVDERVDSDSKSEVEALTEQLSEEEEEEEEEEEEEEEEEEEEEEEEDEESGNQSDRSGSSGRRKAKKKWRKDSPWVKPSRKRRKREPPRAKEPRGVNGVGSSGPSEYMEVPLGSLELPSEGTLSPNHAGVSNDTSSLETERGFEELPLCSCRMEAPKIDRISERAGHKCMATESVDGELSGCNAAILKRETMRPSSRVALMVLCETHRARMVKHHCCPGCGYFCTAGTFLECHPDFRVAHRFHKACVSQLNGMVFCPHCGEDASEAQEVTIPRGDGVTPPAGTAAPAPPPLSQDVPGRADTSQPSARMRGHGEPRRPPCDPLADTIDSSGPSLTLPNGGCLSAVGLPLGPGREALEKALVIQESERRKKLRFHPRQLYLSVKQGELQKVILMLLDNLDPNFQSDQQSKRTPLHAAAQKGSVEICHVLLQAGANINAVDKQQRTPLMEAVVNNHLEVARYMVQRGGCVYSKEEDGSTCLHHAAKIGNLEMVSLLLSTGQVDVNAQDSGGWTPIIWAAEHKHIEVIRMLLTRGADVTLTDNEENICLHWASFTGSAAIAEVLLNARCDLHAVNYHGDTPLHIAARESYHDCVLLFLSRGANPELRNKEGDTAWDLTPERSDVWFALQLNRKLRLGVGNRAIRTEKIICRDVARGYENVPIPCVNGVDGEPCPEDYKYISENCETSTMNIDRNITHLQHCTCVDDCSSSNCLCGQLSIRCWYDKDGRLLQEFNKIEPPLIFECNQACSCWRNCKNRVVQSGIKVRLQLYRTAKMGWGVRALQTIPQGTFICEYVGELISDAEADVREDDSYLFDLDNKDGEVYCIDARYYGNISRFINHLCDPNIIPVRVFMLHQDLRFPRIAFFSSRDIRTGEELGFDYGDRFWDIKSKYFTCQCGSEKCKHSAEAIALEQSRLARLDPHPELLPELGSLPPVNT
In short: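 AlphaScreen read-out: biotin-H3K9 peptide (500 nM) methylation by 20 nM enzyme with 20 uM SAM, 2 h at room temperature after 15 min compound preincubation; anti-monomethyl H3K9 antibody plus donor/acceptor beads, 10 min dark.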
% is set by controls: 0 for no effect and ±100 for the full control effect; potency is the fitted concentration of half-maximal effect; tags give direction and shape of the fitted curve.
Note: nearly all actives have a fitted effect of over 75% in size.

Q: With `Cc1ccc(S(=O)(=O)NNC(=O)c2csnn2)cc1` as the molecule, how does the Potency read?
A: inconclusive: 17.8 µM [inhibitor, single point]

Q: For `COCCN(C(=O)CC1CCCCC1)c1c(N)n(CC(C)C)c(=O)[nH]c1=O`, which Potency is on record?
A: inconclusive: 39.8 µM [inhibitor, single point]

Q: With `Cn1c(=O)c2c(nc(NCCc3ccccc3)n2Cc2ccc(F)cc2)n(C)c1=O` as the molecule, how does the Potency read?
A: inconclusive: 39.8 µM [inhibitor, single point]

Q: How did the Potency turn out when `O=C1CCN(CCc2ccccc2)CCN1[C@H](COc1ccccc1)Cc1ccccc1` was run?
A: inconclusive: 56.2 µM [inhibitor, partial curve]

Q: For `COc1cccc(C2c3[nH]c4ccccc4c3CCN2Cc2cccn2-c2ncccn2)c1` (configuration not stated), which Potency is on record?
A: active: 39.8 µM

Q: Which Potency does the source give for `COc1cc(C(=O)C(=O)c2cc(OC)c(O)c(OC)c2)cc(OC)c1O` here?
A: active: 44.7 µM

Q: `Cc1cc(C)c(C)c(S(=O)(=O)NCC(=O)NCC2CCCCC2)c1C` was tested. Which Potency did it give?
A: inconclusive: 89.1 µM [inhibitor, partial curve, poor fit]

Q: How did the Potency turn out when `COc1ccc(C)cc1NC(=O)CCCN1C(=S)NC(C)(C)CC1C` (configuration not stated) was run?
A: inconclusive: 25.1 µM [inhibitor, partial curve, poor fit]

Q: With `CNc1nnc(Sc2ncccc2[N+](=O)[O-])s1` as the molecule, how does the Potency read?
A: inconclusive: 28.2 µM [inhibitor, single point]

Q: For `C=CC(n1cncn1)C(O)(c1ccccc1)c1ccccc1` (configuration not stated), which activity, negative = inhibition is on record?
A: inactive: 22.2% [at 2.33 µM]

Q: `Cc1ccccc1OCC(O)CN1CCN(CCN2C(=O)c3cccc4cccc(c34)C2=O)CC1` (configuration not stated) was tested. Which Potency did it give?
A: active: 79.4 µM

Q: How did the “activity, negative = inhibition” value turn out when `Cc1ccc(CNc2ccc3nnc(-c4ccccc4)n3n2)cc1` was run?
A: inactive: -6.22% [at 102 µM]

Q: How did the “activity, negative = inhibition” value turn out when `O=C(CSc1nc2c([nH]c3ccccc32)c(=O)n1-c1ccccc1F)Nc1cccc(C(F)(F)F)c1` was run?
A: inactive: 0.22%

Q: `Oc1cc2c(cc1O)C1c3ccc(O)c(O)c3OCC1(O)C2` (configuration not stated) was tested. Which Potency did it give?
A: inconclusive: 3.16 µM [inhibitor, partial curve, poor fit]

Q: And the activity, negative = inhibition?
A: inconclusive: -144% [inhibitor] [at 2.33 µM]

Q: How did the Potency turn out when `Cn1nnnc1SCC(=O)N1CCN(C(c2ccccc2)c2ccccc2)CC1` was run?
A: inconclusive: 39.8 µM [inhibitor, single point]

Q: How did the “activity, negative = inhibition” value turn out when `CCOc1cc(/C=C2/SC(=S)N(C)C2=O)ccc1Oc1ccc([N+](=O)[O-])cc1[N+](=O)[O-]` was run?
A: inactive: -26.7% [at 102 µM]

Q: For `O=C(NCc1ccncc1)c1cccc(Cn2cc(Br)cn2)c1`, which Potency is on record?
A: inconclusive: 89.1 µM [inhibitor, single point]

Q: `CC(C)(C)c1ccc(-c2nnc(SC3CCOC3=O)n2Cc2ccccc2)cc1` (configuration not stated) was tested. Which Potency did it give?
A: inconclusive: 20 µM [inhibitor, single point]

Q: `Brc1ccc2c(c1)C(c1ccc(N3CCOCC3)cc1)=NNC(c1cccs1)=N2` was tested. Which Potency did it give?
A: inconclusive: 22.4 µM [inhibitor, single point]

Q: With `Cn1c(=O)c2[nH]c(CN3CCN(Cc4ccccc4)CC3)nc2n(C)c1=O` as the molecule, how does the activity, negative = inhibition read?
A: inconclusive: -76.4% [inhibitor]

Q: For `COC(=O)c1c(NC(=O)C2c3ccccc3Oc3ccccc32)sc2c1CCC(C(C)(C)C)C2` (configuration not stated), which “activity, negative = inhibition” value is on record?
A: inactive: -34.8%

Q: Which activity, negative = inhibition does the source give for `Fc1ccc(Nc2ccnc(-c3ccc4c(c3)OCO4)n2)cc1` here?
A: inactive: -1.17% [at 0.501 µM]

Q: Which “activity, negative = inhibition” value does the source give for `O=C(CCNC(=O)Cn1cnc2ccccc2c1=O)NCC1CCCO1` (configuration not stated) here?
A: inactive: 7.33% [at 102 µM]

Q: With `O=C(Nc1ccccc1Br)c1cc(CN2CCCC2)on1` as the molecule, how does the “activity, negative = inhibition” value read?
A: inactive: -5.99%

Q: How did the “activity, negative = inhibition” value turn out when `O=C1c2ccccc2C(=O)N1Cc1cc(-c2ccccc2)no1` was run?
A: inactive: 23.2%

Q: With `C(=N/N1CCN(c2ccccc2)CC1)/c1cccs1` as the molecule, how does the Potency read?
A: active: 10 µM

Q: How did the Potency turn out when `Cc1ccc(S(=O)(=O)CC(=O)Nc2nnc(C(C)(C)C)s2)cc1` was run?
A: active: 22.4 µM

Q: How did the “activity, negative = inhibition” value turn out when `COc1cc(C(=O)NCCc2sc(-c3cccc(F)c3)nc2C)cc(OC)c1OC` was run?
A: inactive: 3.13%

Q: For `COc1ccc(N=C2SC(CC(=O)Nc3ccccc3)C(=O)N2CCc2ccccn2)cc1` (configuration not stated), which Potency is on record?
A: inconclusive: 17.8 µM [inhibitor, single point]

Q: With `O=C1CCCc2nc(N3CCN(c4ccccc4)CC3)ncc21` as the molecule, how does the “activity, negative = inhibition” value read?
A: inactive: 29.4% [at 102 µM]

Q: With `CC1CCCCC1NC(=O)NC(=O)CCl` (configuration not stated) as the molecule, how does the Potency read?
A: inconclusive: 22.4 µM [inhibitor, single point]

Q: With `CCOC(=O)c1c(NC(=O)c2ccc(S(=O)(=O)N(C)CC3CCCO3)cc2)sc2c1CCN(C)C2` (configuration not stated) as the molecule, how does the Potency read?
A: inconclusive: 79.4 µM [inhibitor, single point]

Q: For `CCCNc1nc(N2CCOCC2)nc(N2CCOCC2)n1`, which Potency is on record?
A: inconclusive: 12.6 µM [inhibitor, partial curve, poor fit]

Q: For `COc1ccc(-c2nnc(SCC(=O)Nc3c(C)cccc3C)nc2-c2ccc(OC)cc2)cc1`, which Potency is on record?
A: inconclusive: 1.26 µM [inhibitor, partial curve, poor fit]

Q: `CC(C)(C)c1ccc(C(=O)NNc2ncccc2-n2cccc2)cc1` was tested. Which Potency did it give?
A: inconclusive: 50.1 µM [inhibitor, partial curve, poor fit]

Q: With `O=C(NCC1CCCN1S(=O)(=O)c1cccs1)C(=O)Nc1ccccc1Cl` (configuration not stated) as the molecule, how does the “activity, negative = inhibition” value read?
A: inactive: -32.4% [at 102 µM]

Q: For `COc1cccc(CN2CC(C(=O)N3CCOCC3)CCC2=O)c1` (configuration not stated), which “activity, negative = inhibition” value is on record?
A: inactive: -9.67%

Q: With `O=C(CCN1C(=O)c2ccccc2Sc2ncccc21)Nc1ccc(F)cc1` as the molecule, how does the Potency read?
A: inconclusive: 39.8 µM [inhibitor, partial curve, poor fit]

Q: With `COc1cccc(-c2csc(N3CCN(C(=S)Nc4ccccc4)CC3)n2)c1` as the molecule, how does the activity, negative = inhibition read?
A: inactive: 12.2% [at 0.501 µM]

Q: For `O=C(NCc1ccco1)c1cccnc1Cl`, which Potency is on record?
A: inconclusive: 89.1 µM [inhibitor, single point]

Q: How did the Potency turn out when `CCc1ccc2nc(N(CCN(C)C)C(=O)c3ccc4ncsc4c3)sc2c1` was run?
A: active: 10 µM

Q: `Cc1ccc(-c2nc(NC(=O)CSc3nnc(C)s3)ns2)cc1` was tested. Which Potency did it give?
A: inconclusive: 0.141 µM [inhibitor, full curve, poor fit]

Q: Which “activity, negative = inhibition” value does the source give for `O=S1(=O)N=C(Oc2ccccc2)c2ccccc21` here?
A: inactive: -1.55%

Q: For `O=C(C1CCC(Cn2c(=O)c3sccc3n(Cc3cccc(F)c3)c2=O)CC1)N1CCOCC1` (configuration not stated), which “activity, negative = inhibition” value is on record?
A: inactive: 5.34%

Q: Which Potency does the source give for `Cc1ccccc1NC(=O)CNc1ccccc1N1CCCCC1` here?
A: inconclusive: 39.8 µM [inhibitor, single point]

Q: With `CC1CCN(C(=O)Cn2nnc(-c3ccc(C(C)C)cc3)n2)CC1` as the molecule, how does the Potency read?
A: inconclusive: 39.8 µM [inhibitor, single point]
